# In the supplement of paper PMC8728848:
# The other results are listed elsewhere or left out.
# B1: SAG3 (Toxoplasma gondii), Q9BJ39 (protein)
# chain: MQLWRRRAAGPASLGRQSLPLGCFFAAFGLCVLSAILGTGERGLFVAAGNSRRKITYFGTLTQKAPNWYRCSSTRAKEEVVGHVTLNKEHPDMTIECVDDGLGGEFLPLEGARSSYPRVCHIDAKDQDDCERNRGFLTDYIPGAKQYWYKIEKVEQNGEQSVLYKFTVPWILLPPAKQRYKVGCRYPNHEYCFVEVTVEPTPPMVEGKRVTCGYSESGPVNLEVDLSKNANFIEIRCGEQHHPQPSTYTLQYCSGDSVDPQKCSPQSLTNIFYDYSSSWWKGKLNGPDGATLTIPPGGFPEEDKSFLVGCSLTVDGPPFCNVKVRVAGNPRKWERGGGGHPGSGGLQPGTDGETQAGTGSSAGASSRMASVALAFLLGLLVHVAA
# Tests used:
# Experiment in all cases: glycan array binding signal (z-score within array); higher = stronger binding
# Conditions in all cases: glycan notation: IUPAC condensed, linker removed
# [1] = biological target: Fuc(a1-2)Gal
# Outline: (§1)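 Negative Z-scores can be read as non-binding. The Z-score is calculated within each array and then averaged across arrays of one protein sequence at different concentrations or buffers and across linkers. Arrays, 3228 in all, were curated from the Consortium for Functional Glycomics database and kept only where the protein sequence was available.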
# [2] = biological target: Fuc(a1-2)Gal(b1-3)GalNAc
# Outline: as §1
# [3] = biological target: Fuc(a1-2)Gal(b1-3)GalNAc(a1-3)[Fuc(a1-2)]Gal(b1-4)Glc
# Outline: as §1
# [4] = biological target: Fuc(a1-2)Gal(b1-3)GalNAc(a1-3)[Fuc(a1-2)]Gal(b1-4)GlcNAc
# Outline: as §1
# [5] = biological target: Fuc(a1-2)Gal(b1-3)GalNAc(b1-3)Gal
# Outline: as §1
# [6] = biological target: Fuc(a1-2)Gal(b1-3)GalNAc(b1-3)Gal(a1-4)Gal(b1-4)Glc
# Outline: as §1
# [7] = biological target: Fuc(a1-2)Gal(b1-3)GalNAc(b1-4)[Neu5Ac(a2-3)]Gal(b1-4)Glc
# Outline: as §1
# [8] = biological target: Fuc(a1-2)Gal(b1-3)GlcNAc
# Outline: as §1
# [9] = biological target: Fuc(a1-2)Gal(b1-3)GlcNAc(b1-2)Man(a1-3)[Fuc(a1-2)Gal(b1-3)GlcNAc(b1-2)Man(a1-6)]Man(b1-4)GlcNAc(b1-4)GlcNAc
# Outline: as §1
# [10] = biological target: Fuc(a1-2)Gal(b1-3)GlcNAc(b1-3)Gal(b1-4)Glc
# Outline: as §1
# [11] = biological target: Fuc(a1-2)Gal(b1-3)GlcNAc(b1-3)[Fuc(a1-3)[Gal(b1-4)]GlcNAc(b1-6)]Gal(b1-4)Glc
# Outline: as §1
# [12] = biological target: Fuc(a1-2)Gal(b1-3)[Fuc(a1-4)]GlcNAc
# Outline: as §1
# [13] = biological target: Fuc(a1-2)Gal(b1-3)[Fuc(a1-4)]GlcNAc(b1-2)Man(a1-3)[Fuc(a1-2)Gal(b1-3)[Fuc(a1-4)]GlcNAc(b1-2)Man(a1-6)]Man(b1-4)GlcNAc(b1-4)GlcNAc
# Outline: as §1
# [14] = biological target: Fuc(a1-2)Gal(b1-3)[Fuc(a1-4)]GlcNAc(b1-3)[Fuc(a1-3)[Gal(b1-4)]GlcNAc(b1-6)]Gal(b1-4)Glc
# Outline: as §1
# [15] = biological target: Fuc(a1-2)Gal(b1-3)[Fuc(a1-4)]GlcNAc(b1-3)[Gal(b1-4)GlcNAc(b1-6)]Gal(b1-4)Glc
# Outline: as §1
# [16] = biological target: Fuc(a1-2)Gal(b1-4)Glc
# Outline: as §1
# [17] = biological target: Fuc(a1-2)Gal(b1-4)Glc6S
# Outline: as §1
# [18] = biological target: Fuc(a1-2)Gal(b1-4)GlcNAc
# Outline: as §1
# [19] = biological target: Fuc(a1-2)Gal(b1-4)GlcNAc(b1-2)Man(a1-3)[Fuc(a1-2)Gal(b1-4)GlcNAc(b1-2)Man(a1-6)]Man(b1-4)GlcNAc(b1-4)GlcNAc
# Outline: as §1
# [20] = biological target: Fuc(a1-2)Gal(b1-4)GlcNAc(b1-3)Gal(b1-4)GlcNAc
# Outline: as §1
# [21] = biological target: Fuc(a1-2)Gal(b1-4)GlcNAc(b1-3)Gal(b1-4)GlcNAc(b1-3)Gal(b1-4)GlcNAc
# Outline: as §1
# [22] = biological target: Fuc(a1-2)Gal(b1-4)GlcNAc(b1-3)GalNAc
# Outline: as §1
# [23] = biological target: Fuc(a1-2)Gal(b1-4)GlcNAc6S
# Outline: as §1
# [24] = biological target: Fuc(a1-2)Gal(b1-4)[Fuc(a1-3)]GlcNAc
# Outline: as §1
# [25] = biological target: Fuc(a1-2)Gal(b1-4)[Fuc(a1-3)]GlcNAc(b1-2)Man(a1-3)[Fuc(a1-2)Gal(b1-4)[Fuc(a1-3)]GlcNAc(b1-2)Man(a1-6)]Man(b1-4)GlcNAc(b1-4)GlcNAc
# Outline: as §1
# [26] = biological target: Fuc(a1-2)Gal(b1-4)[Fuc(a1-3)]GlcNAc(b1-3)Gal(b1-4)[Fuc(a1-3)]GlcNAc
# Outline: as §1
# [27] = biological target: Fuc(a1-2)Gal(b1-4)[Fuc(a1-3)]GlcNAc(b1-3)Gal(b1-4)[Fuc(a1-3)]GlcNAc(b1-3)Gal(b1-4)[Fuc(a1-3)]GlcNAc
# Outline: as §1
# [28] = biological target: Fuc(a1-2)Gal6S(b1-4)Glc
# Outline: as §1
# [29] = biological target: Fuc(a1-2)Gal6S(b1-4)Glc6S
# Outline: as §1
# [30] = biological target: Fuc(a1-2)Gal6S(b1-4)GlcNAc
# Outline: as §1
# [31] = biological target: Fuc(a1-2)[Gal(a1-3)]Gal
# Outline: as §1
# [32] = biological target: Fuc(a1-2)[Gal(a1-3)]Gal(b1-3)GlcNAc
# Outline: as §1
# [33] = biological target: Fuc(a1-2)[Gal(a1-3)]Gal(b1-3)GlcNAc(b1-2)Man(a1-3)[Fuc(a1-2)[Gal(a1-3)]Gal(b1-3)GlcNAc(b1-2)Man(a1-6)]Man(b1-4)GlcNAc(b1-4)GlcNAc
# Outline: as §1
# [34] = biological target: Fuc(a1-2)[Gal(a1-3)]Gal(b1-4)Glc
# Outline: as §1
# [35] = biological target: Fuc(a1-2)[Gal(a1-3)]Gal(b1-4)GlcNAc
# Outline: as §1
# [36] = biological target: Fuc(a1-2)[Gal(a1-3)]Gal(b1-4)GlcNAc(b1-2)Man(a1-3)[Fuc(a1-2)[Gal(a1-3)]Gal(b1-4)GlcNAc(b1-2)Man(a1-6)]Man(b1-4)GlcNAc(b1-4)GlcNAc
# Outline: as §1
# [37] = biological target: Fuc(a1-2)[Gal(a1-3)]Gal(b1-4)[Fuc(a1-3)]GlcNAc
# Outline: as §1
# [38] = biological target: Fuc(a1-2)[Gal(a1-4)]Gal(b1-4)GlcNAc
# Outline: as §1
# [39] = biological target: Fuc(a1-2)[GalNAc(a1-3)]Gal
# Outline: as §1
# [40] = biological target: Fuc(a1-2)[GalNAc(a1-3)]Gal(b1-3)GalNAc(a1-3)[Fuc(a1-2)]Gal(b1-4)GlcNAc
# Outline: as §1
# [41] = biological target: Fuc(a1-2)[GalNAc(a1-3)]Gal(b1-3)GlcNAc
# Outline: as §1
# [42] = biological target: Fuc(a1-2)[GalNAc(a1-3)]Gal(b1-3)GlcNAc(b1-2)Man(a1-3)[Fuc(a1-2)[GalNAc(a1-3)]Gal(b1-3)GlcNAc(b1-2)Man(a1-6)]Man(b1-4)GlcNAc(b1-4)GlcNAc
# Outline: as §1
# [43] = biological target: Fuc(a1-2)[GalNAc(a1-3)]Gal(b1-4)Glc
# Outline: as §1
# [44] = biological target: Fuc(a1-2)[GalNAc(a1-3)]Gal(b1-4)GlcNAc
# Outline: as §1
# [45] = biological target: Fuc(a1-2)[GalNAc(a1-3)]Gal(b1-4)GlcNAc(b1-2)Man(a1-3)[Fuc(a1-2)[GalNAc(a1-3)]Gal(b1-4)GlcNAc(b1-2)Man(a1-6)]Man(b1-4)GlcNAc(b1-4)GlcNAc
# Outline: as §1
# [46] = biological target: Fuc(a1-2)[GalNAc(a1-3)]Gal(b1-4)GlcNAc(b1-3)Gal(b1-4)GlcNAc
# Outline: as §1
# [47] = biological target: Fuc(a1-2)[GalNAc(a1-3)]Gal(b1-4)GlcNAc(b1-3)Gal(b1-4)GlcNAc(b1-3)Gal(b1-4)GlcNAc
# Outline: as §1
# [48] = biological target: Fuc(a1-2)[GalNAc(a1-3)]Gal(b1-4)[Fuc(a1-3)]GlcNAc
# Outline: as §1
# [49] = biological target: Fuc(a1-2)[GalNAc(a1-4)]Gal(b1-4)GlcNAc
# Outline: as §1
# [50] = biological target: Fuc(a1-2)[GalNAc(b1-3)]Gal
# Outline: as §1
# [51] = biological target: Fuc(a1-3)GlcNAc
# Outline: as §1
# [52] = biological target: Fuc(a1-3)[Gal(b1-4)]Glc6S
# Outline: as §1
# [53] = biological target: Fuc(a1-3)[Gal(b1-4)]GlcNAc
# Outline: as §1
# [54] = biological target: Fuc(a1-3)[Gal(b1-4)]GlcNAc(b1-2)Man(a1-3)[Fuc(a1-3)[Gal(b1-4)]GlcNAc(b1-2)Man(a1-6)]Man(b1-4)GlcNAc(b1-4)GlcNAc
# Outline: as §1
# [55] = biological target: Fuc(a1-3)[Gal(b1-4)]GlcNAc(b1-3)Gal(b1-3)[Fuc(a1-4)]GlcNAc
# Outline: as §1
# [56] = biological target: Fuc(a1-3)[Gal(b1-4)]GlcNAc(b1-3)GalNAc
# Outline: as §1
# [57] = biological target: Fuc(a1-3)[Gal(b1-4)]GlcNAc(b1-4)Gal(b1-4)[Fuc(a1-3)]GlcNAc
# Outline: as §1
# [58] = biological target: Fuc(a1-3)[Gal(b1-4)]GlcNAc(b1-4)Gal(b1-4)[Fuc(a1-3)]GlcNAc(b1-4)Gal(b1-4)[Fuc(a1-3)]GlcNAc
# Outline: as §1
# [59] = biological target: Fuc(a1-3)[Gal(b1-4)]GlcNAc(b1-6)[Gal(b1-3)GlcNAc(b1-3)]Gal(b1-4)Glc
# Outline: as §1
# [60] = biological target: Fuc(a1-3)[Gal(b1-4)]GlcNAc6S
# Outline: as §1
binder,measurement,setting,value
B1,glycan array binding signal (z-score),[1],-0.404
same,glycan array binding signal (z-score),[2],-0.359
same,glycan array binding signal (z-score),[3],-0.149
same,glycan array binding signal (z-score),[4],-0.171
same,glycan array binding signal (z-score),[5],0.246
same,glycan array binding signal (z-score),[6],-0.474
same,glycan array binding signal (z-score),[7],-0.111
same,glycan array binding signal (z-score),[8],-0.116
same,glycan array binding signal (z-score),[9],0.107
same,glycan array binding signal (z-score),[10],-0.246
same,glycan array binding signal (z-score),[11],0.235
same,glycan array binding signal (z-score),[12],-0.519
same,glycan array binding signal (z-score),[13],6.32
same,glycan array binding signal (z-score),[14],-0.082
same,glycan array binding signal (z-score),[15],0.4
same,glycan array binding signal (z-score),[16],-0.397
same,glycan array binding signal (z-score),[17],-0.145
same,glycan array binding signal (z-score),[18],0.63
same,glycan array binding signal (z-score),[19],-0.221
same,glycan array binding signal (z-score),[20],-0.708
same,glycan array binding signal (z-score),[21],-0.005
same,glycan array binding signal (z-score),[22],-0.177
same,glycan array binding signal (z-score),[23],0.074
same,glycan array binding signal (z-score),[24],-0.359
same,glycan array binding signal (z-score),[25],2.31
same,glycan array binding signal (z-score),[26],0.251
same,glycan array binding signal (z-score),[27],-0.127
same,glycan array binding signal (z-score),[28],0.041
same,glycan array binding signal (z-score),[29],-0.015
same,glycan array binding signal (z-score),[30],-0.304
same,glycan array binding signal (z-score),[31],-0.263
same,glycan array binding signal (z-score),[32],-0.365
same,glycan array binding signal (z-score),[33],0.257
same,glycan array binding signal (z-score),[34],-0.148
same,glycan array binding signal (z-score),[35],0.112
same,glycan array binding signal (z-score),[36],-0.113
same,glycan array binding signal (z-score),[37],-0.067
same,glycan array binding signal (z-score),[38],-0.081
same,glycan array binding signal (z-score),[39],0.084
same,glycan array binding signal (z-score),[40],-0.108
same,glycan array binding signal (z-score),[41],0.17
same,glycan array binding signal (z-score),[42],-0.473
same,glycan array binding signal (z-score),[43],-0.134
same,glycan array binding signal (z-score),[44],-0.276
same,glycan array binding signal (z-score),[45],-0.306
same,glycan array binding signal (z-score),[46],-0.084
same,glycan array binding signal (z-score),[47],0.11
same,glycan array binding signal (z-score),[48],0.385
same,glycan array binding signal (z-score),[49],-0.046
same,glycan array binding signal (z-score),[50],-0.518
same,glycan array binding signal (z-score),[51],-0.204
same,glycan array binding signal (z-score),[52],0.631
same,glycan array binding signal (z-score),[53],0.204
same,glycan array binding signal (z-score),[54],-0.15
same,glycan array binding signal (z-score),[55],-0.032
same,glycan array binding signal (z-score),[56],2.86
same,glycan array binding signal (z-score),[57],-0.174
same,glycan array binding signal (z-score),[58],0.453
same,glycan array binding signal (z-score),[59],0.169
same,glycan array binding signal (z-score),[60],-0.464
